Experimental data: PubChem BioAssay AID938 (National Center for Advancing Translational Sciences (NCATS), 2007)
Screen size: about 73,000 compounds; about 1,800 (2.5%) were called active. The shares of active, inactive and inconclusive entries below differ from those in the screen. Calls follow the shape of the dose curve; as a rule, active = well fitted activation curve with a large enough effect; inconclusive = small, poorly fitted or top-dose-only effect; inactive = no such curve, though single readings can be large or run the other way. No potency is given beside an inconclusive call; the fits are too rough.

Assay: qHTS Assay for Agonists of the Thyroid Stimulating Hormone Receptor: Activators of Intracellular cAMP Concentrations in Parental HEK 293; also: nearly all actives have a fitted effect of over 55% in size; as to activation: % of control where 0% means no effect
Conditions: parental HEK293 CNG cAMP sensor, membrane potential fluorescence; activation: at 57.1 µM (top of the series) unless noted
Procedure, shortened: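 Parental HEK 293 cells stably expressing a cAMP-gated CNG channel were loaded with membrane potential dye containing 100 uM RO 20-1724 for 60 min. Compound added for 30 min; depolarization read as fluorescence intensity at 590 nm.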
Potency is read from the fitted curve at half-maximal effect; tags tell the direction and shape of the fitted curve.

| SMILES | Potency | activation |
| --- | --- | --- |
| O=C(NCc1cccnc1)c1ccc(COc2ccccc2Br)o1 | inactive | – |
| O=C(c1ccncc1)N1CCC2(CC1)CCN(c1ccccn1)CC2 | inconclusive [activator, partial curve] | – |
| O=C(CSc1nnc(-c2ccncc2)n1Cc1ccco1)OC1CCCCC1 | inconclusive [activator, single point] | – |
| CC1=CCC2(CO)COC(c3ccccc3O)C1C2 (stereo unspecified) | inconclusive [activator, single point] | – |
| CN(C)S(=O)(=O)c1cccc(C(=O)Nc2ccc(Cl)cn2)c1 | inconclusive [activator, single point] | – |
| O=C(CN1CCCN(S(=O)(=O)c2ccc(Br)cc2)CC1)Nc1ccc2c(c1)OCO2 | inconclusive [activator, single point] | – |
| CN1CCN(Cc2cc(=O)oc3cc4c(cc23)CCC4)CC1 | inconclusive [activator, single point] | – |
| CC(=O)N1CCC2(CCCN(Cc3nccs3)C2)CC1 | inconclusive [activator, single point] | – |
| CC(=O)Nc1nc2ncc(C=O)nc2c(=O)[nH]1 | – | inactive: 7.89% [at 11.4 µM] |
| COC(=O)c1ccccc1NC(=O)CSc1nc(NC(=O)c2ccccc2)c2c(C)c(C)oc2n1 | inconclusive [activator, partial curve] | – |
| CCC/C=C(\CCC)C(NC(=O)OCC(C)C)c1ccc(C(=O)OC)cc1 (stereo unspecified) | inconclusive [activator, partial curve] | – |
| CCC(C)N1CC(C(=O)NC2CCCCC2)CC1=O (stereo unspecified) | inconclusive [activator, partial curve] | – |
| COCCn1c(=O)c(-c2ccc(F)cc2)nc2cnc(N3CCOCC3)nc21 | inactive | – |
| O=C(NCc1ccco1)c1ccc(N2CCCC2=O)cc1 | inactive | – |
| O=C(c1cnccn1)N1CCC2(CC1)CCN(c1ccncc1)CC2 | inactive | – |
| COc1ccccc1-c1nnc2sc(-c3ccc(N(C)C)cc3)nn12 | inactive | – |
| C/C(Cl)=C/Cn1c(=O)c2c(nc(Br)n2Cc2ccccc2)n(C)c1=O | inconclusive [activator, single point] | – |
| CCN(C(=O)c1ccc(C(C)(C)C)cc1)c1nnc(Cn2nnc3ccccc32)s1 | active: 25.1 µM | – |
| CCC(C(=O)Nc1cc(C)nn1-c1nc(C)cc(C)n1)c1ccccc1 (stereo unspecified) | active: 15.8 µM | – |
| CCOc1ccc(-c2nnc(-c3ccco3)o2)cc1 | inconclusive [activator, partial curve] | – |
| c1ccc(Cn2nnnc2C(c2cccs2)N2CCSCC2)cc1 (stereo unspecified) | inconclusive [activator, partial curve] | – |
| Cn1c(=O)c(-c2ccc(Cl)cc2)nc2cnc(N3CCOCC3)nc21 | inactive | – |
| O=C(c1cc2c(=O)n3ccccc3nc2s1)N1CCOCC1 | inconclusive [activator, single point] | – |
| CC(=O)c1cccc(NC(=O)CN(c2ccccc2)S(C)(=O)=O)c1 | inconclusive [activator, full curve, poor fit] | – |
| O=C1NC(c2ccco2)Nc2sc3c(c21)CCN(Cc1ccccc1)C3 (stereo unspecified) | inactive | – |
| O=C(CSc1nc2cc(Cl)ccc2s1)c1ccco1 | inconclusive [activator, single point] | – |

| SMILES | Potency | activation |
| --- | --- | --- |
| CN(C)Cc1cc(O)c(O)c(CN(C)C)c1 | – | inactive: 12.5% [at 11.4 µM] |
| CCOc1ccccc1C(=O)Nn1c(C2CCC2)nc2ccccc2c1=O | inconclusive [activator, partial curve] | – |
| Cc1noc(C)c1-c1ccc2ncnc(Nc3ccc(F)cc3)c2c1 | inactive | – |
| Cc1ccc(NC(=O)c2c(O)c3ccccc3n(C)c2=O)nc1 | inconclusive [activator, single point] | – |
| Cc1noc(C(=O)NCc2cccnc2)c1Cl | inconclusive [activator, single point] | – |
| CC(=O)N1CCC2(CC1)CCN(C(c1ccccc1)c1ccccc1)CC2 | inactive | – |
| O=C(CSc1nnc(-c2ccco2)o1)c1ccc(F)c(F)c1 | inactive | – |
| Cc1ccc(-c2nc3ncccn3c2NC2CCCC2)o1 | inconclusive [activator, single point] | – |
| CCOC(=O)c1sc(C)c2c(=O)n(CC)nnc12 | inactive | – |
| c1nc2sc3c(c2c2nnnn12)CCC3 | inconclusive [activator, single point] | – |
| CCOc1cccc(-c2nnc3sc(COc4ccc(OC)cc4)nn23)c1 | active: 31.6 µM | – |
| Cc1conc1NC(c1cccs1)c1ccc2cccnc2c1O (stereo unspecified) | inactive | – |
| CCOc1ccccc1N1Cc2cc(C)c(C)cc2C1 | inactive | – |
| O=C(NC1CCCCC1)C(c1cccs1)N(CC1CCCO1)C(=O)c1csnn1 (stereo unspecified) | inconclusive [activator, partial curve] | – |
| Cc1ccc2oc(=O)c3cnn(CC(=O)N(CCC(C)C)Cc4ccco4)c3c2c1 | inconclusive [activator, partial curve] | – |
| Cc1ccc(CSc2nnc(-c3ccc(S(=O)(=O)N4CCCC4)cc3)o2)cc1 | inconclusive [activator, single point] | – |
| O=C(Nc1cccc(C(=O)N2CCCC2)c1)c1ccccc1 | inconclusive [activator, single point] | – |
| COc1ccc(C2C=C(c3ccccc3)Nc3ncnn32)cc1 (stereo unspecified) | inconclusive [activator, single point] | – |
| O=c1[nH]c2ccc(Cl)cc2c(-c2ccccc2)c1N1CCOCC1 | inactive | – |
| O=c1/c(=C\c2cccnc2)sc2nc3ccccc3n12 | inconclusive [activator, single point] | – |
| Cc1ccsc1C1C=C(c2cccc(Br)c2)Nc2ncnn21 (stereo unspecified) | inconclusive [activator, single point] | – |
| Cc1ccnc(N2C(=O)OC(C)(C)C2(C)O)c1 (stereo unspecified) | inconclusive [activator, single point] | – |
| O=c1c2ccccc2nc(-c2ccccc2)n1Cc1ccco1 | inconclusive [activator, single point] | – |
| COC(=O)c1ccc(Cl)c(NC(C)=O)c1 | inactive | – |
| COc1ccc(C(c2nnnn2C2CCCC2)N2CCC(C)CC2)cc1 (stereo unspecified) | active: 20 µM | – |
| CCc1ccccc1NC(=O)c1cc2sccc2n1C | active: 31.6 µM | – |

| SMILES | Potency | activation |
| --- | --- | --- |
| Cc1ccccc1-c1nccc(NCCN2CCOCC2)n1 | inconclusive [activator, single point] | – |
| CC(C)(C)n1ncc2c(=O)n(CC(=O)Nc3ccc(Cl)cc3)cnc21 | inconclusive [activator, single point] | – |
| CSc1nnc(CNC(=O)c2ccccc2)n1-c1cccc(C)c1 | inconclusive [activator, single point] | – |
| O=C(c1cccs1)N1CCCC(c2nc(-c3ccc(F)cc3)no2)C1 (stereo unspecified) | inconclusive [activator, partial curve] | – |
| NC(=O)N[C@H](CC(=O)O)C(=O)O | – | inactive: 2.46% [at 11.4 µM] |
| CC(C)C1N(S(=O)(=O)c2ccccc2)CCN1S(=O)(=O)c1ccccc1 | inconclusive [activator, partial curve] | – |
| Cc1ccc(-c2noc(C3CCCN(C(=O)c4c(F)cccc4F)C3)n2)cc1 (stereo unspecified) | active: 7.94 µM | – |
| COc1ccccc1CCn1c(=O)c(-c2ccc(Cl)cc2)nc2cncnc21 | inconclusive [activator, full curve] | – |
| CC(C)Oc1ccc(NC(=O)c2ccncc2)cc1 | inactive | – |
| Cc1ccc(NC(=O)CCn2cnc3ccccc3c2=O)cc1Cl | inactive | – |
| O=c1c(-c2cc(F)cc(F)c2)nc2cncnc2n1Cc1ccc(F)cc1 | inconclusive [activator, partial curve] | – |
| Cc1ccc2cc(CN(Cc3cccs3)Cc3nnnn3C(C)(C)C)c3nnnn3c2c1 | inconclusive [activator, full curve] | – |
| CCCn1c(=O)c2ccccc2n2c(SCC(=O)c3ccccc3)nnc12 | inconclusive [activator, partial curve] | – |
| Clc1ccc(-c2nc(NCCN3CCOCC3)c3ccccc3n2)cc1 | inactive | – |
| CCC(C)(C)n1nnnc1C(c1ccc(O)c(OC)c1)N1CCN(c2nc3ccccc3s2)CC1 (stereo unspecified) | inconclusive [activator, partial curve] | – |
| O=C(Nc1cccc2ccccc12)N1CCN(Cc2ccccc2)CC1 | inactive | – |
| CCN1CCN(c2ncnc3c2oc2nc(C(C)C)c4c(c23)CCC4)CC1 | inactive | – |
| O=C(c1ccccc1)c1cccn1CC(=O)N1CCN(c2ccccc2)CC1 | inconclusive [activator, single point] | – |
| COC(=O)CC(=O)CSc1nc2c(cc1C#N)CCCCC2 | inactive | – |
| COC(=O)Cn1c(C(=O)N(C)C)cc2c1C[C@H]1CN(C(=O)c3ccccc3)[C@@](Cc3ccc(F)cc3)(C(=O)OC)[C@@H]21 | inconclusive [activator, partial curve] | – |
| CCc1ccccc1OCC(=O)NC1CCCC1 | inconclusive [activator, single point] | – |
| COC(=O)CSc1nc2cc(Cl)ccc2c(=O)n1C1CCCC1 | inconclusive [activator, single point] | – |
| Cc1cc(C)n(-c2ccc(C(=O)OCc3nnc(-c4ccccc4)o3)cc2)n1 | active: 31.6 µM | – |
| O=C(c1ccccc1CCc1ccccc1)N1CCN(c2ccccn2)CC1 | active: 15.8 µM | – |
